# Source: PubChem BioAssay AID1476 (National Center for Advancing Translational Sciences (NCATS), 2009)
# Screen size: about 200,000 compounds; about 4,500 (2.2%) were called active. Inconclusive results, whose numbers are uncertain, are shown with a selection of clear calls. Calls follow the shape of the dose curve; as a rule, active = well fitted inhibition curve with a large enough effect; inconclusive = small, poorly fitted or top-dose-only effect, or effect the other way; inactive = flat fitted curve, though single readings scatter. A potency beside an inconclusive call is a rough fit, not a confirmed value.
# Target: Cruzipain (Trypanosoma cruzi) (UniProt P25779)
# Sequence of UniProt P25779 (P25779 whole entry, looked up): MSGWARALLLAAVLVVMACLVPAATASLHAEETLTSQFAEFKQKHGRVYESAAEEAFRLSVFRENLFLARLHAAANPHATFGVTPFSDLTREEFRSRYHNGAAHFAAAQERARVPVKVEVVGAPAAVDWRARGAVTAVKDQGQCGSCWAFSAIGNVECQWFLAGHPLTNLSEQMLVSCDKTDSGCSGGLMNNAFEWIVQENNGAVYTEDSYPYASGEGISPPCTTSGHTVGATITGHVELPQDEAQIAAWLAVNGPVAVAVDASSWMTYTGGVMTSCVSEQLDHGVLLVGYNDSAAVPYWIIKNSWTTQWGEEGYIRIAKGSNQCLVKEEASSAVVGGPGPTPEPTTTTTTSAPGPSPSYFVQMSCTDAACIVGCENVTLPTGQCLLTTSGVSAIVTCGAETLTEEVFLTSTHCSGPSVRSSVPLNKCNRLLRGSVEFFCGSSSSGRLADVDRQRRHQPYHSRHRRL
# Assay: qHTS Assay for Promiscuous and Specific Inhibitors of Cruzain (without detergent); also: nearly all actives have a fitted effect of over 40% in size
# Details: purified cruzain, Z-FR-AMC fluorescence, no detergent
# Procedure: Cruzain is a cysteine protease from the tropical parasite Trypanosoma cruzi. Dual qHTS experiment was performed against the NCGC compound collection in order to 1) identify novel inhibitors of the enzyme and 2) profile the compound collection for promiscuous inhibitors operating via colloidal aggregation (by performing detergent-free and detergent-containing comparison screens). Cruzain was assayed by the use of fluorogenic coumarin-based substrate Z-FR-AMC: proteolytic cleavage releases AMC, whose fluorescence is measured at 360 nm excitation and 450 nm emission. Purified cruzain was supplied by the labs of Prof. James McKerrow and Brian Shoichet, UC San Francisco.
# This assay had 0.00005% Triton X-100 concentration. See also releated assay "qHTS Assay for Promiscuous and Specific Inhibitors of Cruzain (with detergent)" with 0.01% Triton X-100.
# See following references for additional details:
# Assay Provider: Shoichet, Brian; University of California, San Fancisco
# Screening Center PI: Austin, C.P.
# Screening Center: NIH Chemical Genomics Center [NCGC]
# Buffer: 100 mM Sodium Acetate, pH 5.5, 5 mM DTT, Triton X-100 concentration: 0.01%.
# Buffer in columns 3 and 4 as negative control (no enzyme).
# Substrate solution: 2 uM final concentration of Z-FR-AMC (catalog number I-1160, Bachem) dispensed throughout the plate.
# Enzyme: 1.5 nM Cruzain final concentration in columns 1, 2, 5-48. Column 1 is neutral (100% activity). Column 2 contained titration of covalent inhibitor K11777, starting concentration 1 mM, then 1:2 dilution in duplicate).
# Three uL of enzyme or buffer were dispensed to 1536-well Greiner black solid bottom plates. Compounds and controls (23 nL) were transferred via Kalypsys PinTool. The plates were incubated for 15 min at room temperature, and then 1 uL of substrate solution was added to start the reaction. The plates were immediately transferred to and read 4 times every 30 seconds for 2 min on ViewLux High-throughput CCD imager (Perkin-Elmer) using 360 nm excitation and 450 nm emission fluorescence protocol. The fluorescence intensity difference between the third and the first time points (time lapse of 60 seconds) was used to compute reaction progress.
# Potency is read from the fitted curve at half-maximal effect; tags tell the direction and shape of the fitted curve.
Compound,"max response, negative = inhibition",Potency
CC1=C(C(=O)Nc2ccccc2)C(c2ccncc2)n2nc(SCc3ccccc3)nc2N1 (stereo not given),inactive: 0.201%,
COc1ccc(C(=O)/C=C/c2cn(CC(O)CN(CC(C)C)CC(C)C)c3ccccc23)cc1OC (stereo not given),inactive: 17.8%,
CN(C)c1ccc(C(=S)N2CCCCCC2)cc1,,active: 6.31 µM
Cc1c(C(=O)Nc2ccc(F)cc2F)nnn1-c1ccccc1Br,inactive: 8.78%,
CC(C)n1cc(/C=C2/SC(=O)N(CC(=O)N3CCCC3)C2=O)c2ccccc21,,"inconclusive: 39.8 µM [activator, single point]"
COc1cccc(-c2cc(C(F)(F)F)nc(NCc3ccc(F)cc3)n2)c1,,"inconclusive: 39.8 µM [inhibitor, single point]"
CC(Sc1nnc(NC(=O)c2cc3ccccc3oc2=O)s1)c1ccccc1 (stereo not given),,active: 12.6 µM
COc1ccc(CNC(=O)Cc2c(C)c3ccc(O)cc3oc2=O)cc1,,active: 25.1 µM
O=S(=O)(c1ccccc1)c1cnc(-c2cccnc2)nc1-c1ccc(Cl)c(Cl)c1,,"inconclusive: 3.98 µM [activator, single point]"
Cn1c(=O)n(C)c2cc(/C=N/NC(=S)NCc3ccccc3)ccc21,,"inconclusive: 39.8 µM [activator, single point]"
CCOC(=O)c1sc(NC(=O)c2nc(SC)ncc2Cl)c(C(=O)OCC)c1C,inactive: 1.52%,
CC(C)c1ccc(NS(=O)(=O)c2ccc3[nH]cc(C(=O)NC4CCCCC4)c(=O)c3c2)cc1,,"inconclusive: 39.8 µM [inhibitor, single point]"
Nc1nc(C(=O)O)c(N=Nc2ccccc2)c(=O)[nH]1,inactive: -8.64%,
Cc1ccccc1Cn1c(=O)n(CC2CCC(C(=O)NCCc3ccccc3)CC2)c(=O)c2ccccc21 (stereo not given),,"inconclusive: 39.8 µM [inhibitor, single point]"
O=C(NCc1ccccc1Cl)C1CCCN(c2nc3ccccc3n3cccc23)C1 (stereo not given),,"inconclusive: 39.8 µM [inhibitor, single point]"
CCOC(=O)c1sc(-c2ccc(OC)cc2)cc1NC(C)=O,,"inconclusive: 25.1 µM [activator, partial curve]"
COC(=O)c1ccc(NS(=O)(=O)c2ccc3[nH]c4c(c3c2)CCCCC4)cc1,,"inconclusive: 25.1 µM [inhibitor, single point]"
COC(=O)c1ccc(CSc2nnc(C)s2)cc1,inactive: -12.8%,
CCc1sc(C(=O)Nc2cc(Cl)ccc2N2CCCCC2)cc1C,,"inconclusive: 31.6 µM [inhibitor, single point]"
COC(=O)[C@@]1(Cc2ccc(OC)cc2)[C@H]2c3cc(C(=O)N(C)C)n(Cc4nc5ccccc5[nH]4)c3C[C@H]2CN1C(=O)c1ccccc1,,"inconclusive: 39.8 µM [activator, single point]"
Cc1nc2cnc(N(C)C)nc2n(Cc2ccc(F)cc2)c1=O,inactive: 12.7%,
COc1ccc(NC(=O)CCC(=O)c2ccc(-c3ccccc3)cc2)cc1,,active: 25.1 µM
O=c1c(Cl)c(N/N=C/c2ccc(Cl)cc2)cnn1-c1ccccc1,,"inconclusive: 39.8 µM [activator, single point]"

Compound,"max response, negative = inhibition",Potency
COC(=O)c1ccc(NC(=O)c2nn(C)c3c2CS(=O)(=O)c2ccccc2-3)cc1,inactive: 6.39%,
CCc1ccccc1NC(=O)CC(c1ccc(F)cc1)N1Cc2ccccc2C1=O (stereo not given),inactive: -3.73%,
CC[C@](N)(CCC(=O)O)C(=O)O,inactive: 1.81%,
COc1ccc(-n2c(C)c([N+](=O)[O-])c3ccc(O)c(CN(C)C)c32)cc1,,active: 25.1 µM
O=C(CSc1nc2ccccc2n1Cc1ccc(F)c(Cl)c1)N1CCN(c2ccc(F)cc2)CC1,inactive: 7.15%,
CCOC(=O)c1cc(-c2ccccc2)sc1N,,active: 25.1 µM
COc1cc(OC)cc(-c2cc3nc(C)c(CCC(=O)O)c(C)n3n2)c1,,"inconclusive: 39.8 µM [activator, single point]"
CC(=O)OC1CC(O)C(C)(C)C2CC(OC(C)=O)[C@]3(C)C(CC[C@@]4(C)C(c5ccoc5)OC(=O)C5OC534)[C@]12C (stereo not given in full),,"inconclusive: 15.8 µM [activator, partial curve]"
O=C(Nc1nnc(SCc2cccc3ccccc23)s1)C1COc2ccccc2O1 (stereo not given),,active: 25.1 µM
COc1ccccc1N1CCN(C(=O)CSc2nc3ccccc3c(=O)n2CC2CCCO2)CC1 (stereo not given),,"inconclusive: 25.1 µM [activator, partial curve]"
O=C(Nc1nnc(CCS(=O)(=O)c2ccc3ccccc3c2)s1)c1ccc([N+](=O)[O-])cc1,,active: 12.6 µM
COc1ccccc1/C=C\C=N\n1c(-c2ccc(Cl)cc2Cl)n[nH]c1=S,,active: 31.6 µM
Cc1cccc2c1-c1sc(C(=O)NCc3ccccc3Cl)cc1CO2,,"inconclusive: 39.8 µM [inhibitor, single point]"
Cc1ccc(-c2csc(/C(C#N)=C/Nc3ccccc3SC(F)(F)F)n2)cc1,,active: 10 µM
Cc1cccc(C)c1-n1c(C)cc(/C=N/NC(N)=S)c1C,,"inconclusive: 39.8 µM [inhibitor, single point]"
COCCCNC(=O)CN1C(=O)c2c(c3ccccc3n2C)C1c1ccc(OC)cc1 (stereo not given),,"inconclusive: 31.6 µM [activator, single point]"
O=C(COC(=O)C1CC(=O)N(c2ccccc2)C1)c1ccccc1 (stereo not given),inactive: 0.424%,
Cc1ccc(S(=O)(=O)N(C)c2c(C)ccc(S(=O)(=O)N3CCN(C=O)CC3)c2C)cc1,,"inconclusive: 31.6 µM [activator, single point]"
CCCCSc1ncnc2c1sc1nc(N3CCOCC3)c3c(c12)CCCC3,inactive: 3.5%,
Cc1ccc(NC(=O)NCCc2c(C)nn(C)c2C)c(Cl)c1,inactive: -2.86%,
C=CCc1cc(C=C2C(=O)N(C)C(=O)N(C)C2=O)cc(OCC)c1OCc1ccccc1,,"inconclusive: 39.8 µM [activator, single point]"
Cc1ccc(S(=O)(=O)N2CCN(C(=O)CCC(=O)OCC(=O)Nc3cccc(C#N)c3)CC2)cc1,,"inconclusive: 31.6 µM [activator, single point]"
